# About 230 (0.21%) of roughly 110,000 compounds showed an effect of 50% or more. This is one part of the list.
# Biological target: DPAP1 (Plasmodium falciparum, UniProt Q8IIJ9)
# Assay: primary screen, percent inhibition; read by cleavage of a fluorogenic dipeptide substrate; higher = more effect of the substance
# Set-up: species or system P. falciparum D10 trophozoite lysates; single well
# 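Also: 30 min substrate incubation versus DMSO and 10 µM JCP410 controls.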
# DPAP1, sequence (Q8IIJ9 whole entry, looked up): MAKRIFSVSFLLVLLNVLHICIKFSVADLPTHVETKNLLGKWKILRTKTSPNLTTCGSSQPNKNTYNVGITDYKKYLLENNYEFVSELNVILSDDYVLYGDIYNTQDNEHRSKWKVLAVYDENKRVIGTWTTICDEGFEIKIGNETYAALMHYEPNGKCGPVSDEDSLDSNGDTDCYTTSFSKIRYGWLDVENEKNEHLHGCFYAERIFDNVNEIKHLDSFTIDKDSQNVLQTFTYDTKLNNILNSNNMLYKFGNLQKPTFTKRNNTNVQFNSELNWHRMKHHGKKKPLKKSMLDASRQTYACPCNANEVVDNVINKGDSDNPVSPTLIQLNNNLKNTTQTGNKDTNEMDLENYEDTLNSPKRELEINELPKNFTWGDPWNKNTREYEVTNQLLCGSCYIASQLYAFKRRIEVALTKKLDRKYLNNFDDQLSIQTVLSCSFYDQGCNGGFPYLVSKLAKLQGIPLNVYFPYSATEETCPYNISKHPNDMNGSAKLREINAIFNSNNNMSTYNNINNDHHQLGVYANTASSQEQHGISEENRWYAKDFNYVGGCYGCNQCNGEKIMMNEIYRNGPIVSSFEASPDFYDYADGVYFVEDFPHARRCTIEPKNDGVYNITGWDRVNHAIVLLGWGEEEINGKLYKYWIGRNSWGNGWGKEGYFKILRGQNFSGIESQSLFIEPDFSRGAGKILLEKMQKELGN
row,SMILES,% Inhibition @ 10 uM [%]
1,O=C(O)C1CC(c2ccccc2)=C(c2ccccc2)CC1C(=O)c1ccccc1 (centres unmarked),17.1
2,Cc1nn(Cc2ccccc2)c(C)c1C(=O)O,-0.744
3,COc1ccc(Cl)cc1N/C=C/C(=O)c1ccc(OC)c(OC)c1,1.08
4,COC(=O)c1c(C)oc2ccc(O)c(CN3CCCCC3)c12,3.74
5,c1cnn(-c2cc(NC3CCCCC3)ncn2)c1,3.48
6,Fc1ccccc1N1CCN(C2CCN(Cc3ccccc3)CC2)CC1,-6.62
7,Cc1ccc(S(=O)(=O)Nc2ccc(NC(=O)COc3ccc(Cl)cc3)cc2)cc1,-1.35
8,Cc1cccc(CN2C(=O)N/C(=C/c3cc(C)n(-c4ccncc4)c3C)C2=O)c1,-2.75
9,COC(=O)C1=C(C)N(C2CCCCC2)C(=O)/C1=C\c1ccc(O)cc1,0.408
10,COc1cccc(C2CC(=O)NC3=C2C(=O)CCC3)c1 (centres unmarked),-5.2
11,CCOc1c(Cl)cc(C(=O)Nc2ccccc2O)cc1Cl,-12.7
12,CC1CN(C(=O)/C(=C\c2ccccc2)NC(=O)c2ccccc2)CC(C)O1 (centres unmarked),0.685
13,CC(NC(=O)C(=O)NCc1ccccn1)C(c1cccs1)N1CCOCC1 (centres unmarked),-1.08
14,O=c1nc(NCc2ccccc2)ccn1-c1nc(-c2ccccc2)oc1-c1ccccc1,-2.13
15,Cc1ccc(S(=O)(=O)Cc2nc(-c3ccc(C(=O)N4CCCCCC4)cc3)oc2C)cc1,-8.88
16,CCC1CCCCN1CCCNC(=O)c1ccc(CS(=O)(=O)c2ccccc2OC)o1 (centres unmarked),2.14
17,COc1ccc(-c2csc3nc(-c4ccc(C)cc4)oc(=O)c23)cc1,-2.26
18,Cc1ccccc1Cn1nnc(C(=O)O)c1C(=O)O,-0.326
19,COc1ccc(S(=O)(=O)N2CCN(C)CC2)cc1-c1nnc2c3ccccc3c(C)nn12,-2.91
20,CC(C)(C)c1[nH]nc2c1C(c1ccc(Cl)s1)C(C#N)=C(N)O2 (centres unmarked),3.19
21,CCOc1cc(Br)c(C(C)NC(=O)c2ccccc2)cc1OCC (centres unmarked),-1.28
22,Cc1nnc(SCC(=O)NCc2ccc(OC(C)C)cc2)c2nn(-c3ccccc3)c(C)c12,-6.68

row,SMILES,% Inhibition @ 10 uM [%]
1,Cc1ccc(N2CCN(C3CCN(CCc4ccccc4)CC3)CC2)cc1,1.9
2,Cc1c(-c2nsc(NC(=O)c3ccccc3)n2)nnn1-c1ccc(C(C)C)cc1,-0.48
3,CCCCC1(O)C(C)C(c2ccccc2)NC(c2ccccc2)C1C (centres unmarked),18.1
4,COc1ccccc1N1CCN(Cc2cccs2)CC1,-0.192
5,O=C(NC1CCCCCC1)c1csc2ccccc12,-3.09
6,C=CCN1C(=O)N/C(=C/c2cc(C)n(-c3ccccc3F)c2C)C1=O,4.5
7,C=C(C)Cn1c(COc2ccc(C)cc2)nc2ccccc21,-0.551
8,COc1ccc(/C=C/C2=CCN(Cc3ccccc3)CC2)cc1,5.69
9,Cc1cc(-n2ccnc2)n2c(nc3ccccc32)c1C#N,20.5
10,O=C1Nc2c(C(=O)O)cccc2C1=O,-6.24
11,CCC1CCCCN1C/C=C/c1ccc(N(C)C)cc1 (centres unmarked),2.7
12,CC(=O)c1cc(-c2ccc(F)cc2)n(CCC(=O)Nc2cccc(C)n2)c1C,-0.176
13,COc1ccc(OC2CCN(S(=O)(=O)c3ccc(C(C)(C)C)cc3)CC2)cc1,-2.84
14,CCc1c(C)c2ccc3c(c2oc1=O)CN(Cc1ccc2c(c1)OCO2)CO3,0.442
15,CSc1nccc2ccccc12,-3.13
16,O=C(CSc1ccccn1)c1ccc(Br)cc1,1.96
17,CCCCOc1ccc2c(-c3ccccc3)cc(=O)oc2c1,-0.339
18,COc1ccc(Br)cc1CNc1ccc(CNc2nc[nH]n2)cc1,3.49
19,O=C(NC1CCCCCC1)c1cc(-c2ccc(Br)cc2)n[nH]1,-3.5
20,Cc1cc(C)cc(NC(=O)c2nn(C)cc2Br)c1,-1.57
21,CCN(CCN(C)C)Cc1ccc(SC)cc1,-0.292
22,CN1CCC(N(C)Cc2ccc(N(C)C)cc2)CC1,-8.13

row,SMILES,% Inhibition @ 10 uM [%]
1,CCOC(=O)c1cccc(NC(=O)C2CCCC2)c1,3.04
2,COc1ccc(C2CC(c3cccs3)=NN2C(=O)CCC(=O)O)cc1 (centres unmarked),1.71
3,Cc1ccccc1Cn1c(C)c(CNC2CCCc3ccccc32)c(C(=O)O)c1C (centres unmarked),-1.92
4,Cc1c(CC(=O)NCc2ccc(Cl)cc2)c(=O)oc2cc(O)ccc12,2.54
5,O=C(NCc1cccnc1)c1ccc(C#Cc2ccccc2)cc1,1.71
6,CC(C)(C)N1C(=O)c2ccc(-c3nc4ccccc4s3)cc2C1=O,-0.545
7,COc1ccc(C2CC3=NC(C)=C(C#N)C(c4cccc(F)c4)C3=C(O)C2)cc1 (centres unmarked),4.01
8,COc1ccc(CCNc2ncnc3onc(C)c23)cc1OC,-4.97
9,Cc1ccc(OCC(=O)Nc2ccc(C#N)cc2)cc1,-9.28
10,CCOC(=O)c1c(C)nc2nonc2c1N,-4.93
11,Nc1c(C(=O)NCc2ccccc2)noc1C(=O)c1ccccc1,5.45
12,CCOC(=O)C1=C(C)OC(n2cccc2)=C(C#N)C1c1ccc(F)cc1 (centres unmarked),-5.72
13,Cc1ccc2oc(=O)c3cc(C(=O)N(C)CCC#N)sc3c2c1,1.94
14,O=C(NC1(C(F)(F)F)C(=O)Nc2c1c(=O)[nH]c(=O)n2-c1ccccc1)c1cccnc1 (centres unmarked),5.39
15,CC(NC(=O)c1cc(O)nc2ccc(S(=O)(=O)N3CCCCCC3)cc12)c1ccccc1 (centres unmarked),3.2
16,Cc1ccc(NC(=O)C2CCN(S(=O)(=O)c3ccc4[nH]c(-c5ccccc5)nc4c3)CC2)nc1,-1.4
17,O=C(Cc1ccccc1)n1nc(-c2ccc(Cl)cc2)nc1NCc1ccco1,-2.91
18,N#CC1=C(N)Oc2c(O)nc(O)nc2C1c1cccc([N+](=O)[O-])c1 (centres unmarked),-3.98
19,CCCn1c2ccccc2c2cnn(CC(=O)N3CCC(Cc4ccccc4)CC3)c(=O)c21,-6.37
20,CC(=O)n1cc(C2C(=O)CC(C)(C)CC2=O)c2ccccc21,5.03
21,COC(=O)c1cc(S(=O)(=O)Nc2ccc(C)cn2)cn1C,0.655
